In patent US20140045779A1, “COMPOUNDS CONTAINING AN ALICYCLIE STRUCTURE AND ANTI-TUMOR APPLICATION” (priority 2011, published 2014) one finds IC50 data, which are given here for four compounds.

Values after ≈ are worked out from the molar mass of the structure shown.

One may read the IC50 as the concentration that gives 50% inhibition.

For experiment [1], the system named is human pancreatic cancer cell line Panc-1. Kind of experiment: cells. To be noted: PANC-1, read-out: IC50, anti-proliferative effect on Panc-1 cells.
Experiment [2] has as its system human colorectal cancer cell line HT29. Kind of experiment: cells. To be noted: HT-29, read-out: IC50, anti-proliferative effect on HT29.

Consider `O=C1C2CC3CC(C2)OC1C3` (centres unmarked) [Example 43, 2-oxaadamantan-4-one], for which the IC50 in experiment [1] is 26.8 µg/mL (≈ 176 µM); in experiment [2], 54.1 µg/mL (≈ 356 µM).

As for `OC12CC3CC(CC(C3)O1)C2` [Example 47, 2-oxaadamantan-1-ol], the IC50 was 17.6 µg/mL (≈ 114 µM) in experiment [1] and 38.3 µg/mL (≈ 249 µM) in experiment [2].

Turning to `COc1cc(C23CN4CN(C2)CC(c2cc(OC)c(OC)c(OC)c2)(C4)C3=O)cc(OC)c1OC` [Example 62, (1r,3r,5r,7r)-5,7-bis(3,4,5-trimethoxyphenyl)-1,3-diazaadamantan-6-one], the IC50 in experiment [1] was 3.26 µg/mL (≈ 6.73 µM); in experiment [2], 3.62 µg/mL (≈ 7.47 µM).

As for `CCCCCNC12CN3CN(CN(C3)C1)C2` [Example 68, (1s,3s,5s)-N-pentyl-1,3,5-triazaadamantan-7-amine], the IC50 in experiment [1] was 3.4 µg/mL (≈ 15.2 µM); in experiment [2], 1.03 µg/mL (≈ 4.59 µM).
